From the supplement of paper PMC10126150
Sequences with one replicate were seen in a single cluster, so their values are uncertain.

Test system: ATP
Experiment: switch fluorescence ratio, 500 uM ATP over buffer (Cy3 cluster intensity, sum of 5 cycles each) (fold (ratio)); higher = stronger signal-on switching upon ATP binding; sequences stand for … in TCGTCGGCAGCGTCAGATGTGTATAAGAGACAGTTTTTTTTTTTTTTTTTTTTTTTTT…TC
Conditions: aptamer strand: ATP DNA aptamer (quencher-CACCTGGGGGAGTATTGCGGAGGAAGG + anchor), 100 nM annealed; ATP concentration: 500 uM; one replicate
How it was run: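 The quencher-labelled ATP aptamer, at 100 nM, was annealed to Cy3-labelled switching-strand clusters on a modified Illumina MiSeq flow-cell. The clusters were imaged in selection buffer, then after 15 min with 500 uM ATP at 22 °C, and this buffer/ATP cycle ran five times with NaOH stripping and re-annealing between runs. Per-cluster fluorescence ratios, summed target-cycle over summed buffer-cycle Cy3 intensity, were averaged per switch-domain sequence. Clusters outside 100-1000 RFU were excluded.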
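Note: ATP exposure 15 min at 22 °C before imaging.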

Sequence | switch fluorescence ratio
TGTCTTTCCA | 0.985
TAAATTCGAG | 1.01
ACTCGGAAGC | 1.26
TAGTTGACGG | 0.91
ACGTGGATCC | 0.997
AGCCGTAACA | 0.992
GAAATTTATC | 0.97
GAAGGGTGAT | 1.04
GGAGGCATCA | 0.952
CGCCGAGCTC | 1.26
AAGTTATTGG | 0.971
TCTTACGTAG | 0.968
TGCATGCTTT | 1.01
TTACCATGCC | 1.1
TAGGCGCACG | 0.997
GGGGCCCAGT | 0.988
AGAGCACGCG | 1.02
ATCGGTACAT | 0.997
GGGCACGGGC | 0.959
CGTTGTGCGC | 1
AAACGGGTAC | 1.11
ATAAGGCAAT | 1.03
GGAGACTTTT | 0.974

Sequence | switch fluorescence ratio
GCCGTACGAA | 0.975
AGGAGGTGAC | 0.909
TGAGGAAAGT | 0.989
CCCCATATGT | 1.02
GTTGAGCTTG | 0.998
TCCTTGTCAT | 1.07
TGGTGCGGGA | 1.07
CCGCTGGTTA | 1.42
CGCACGTGTA | 1.02
CGCCAATGAT | 1.07
TACTTTGTAA | 0.974
ACGCCGCGCC | 1.71
TTATAGCTTG | 0.994
TTCATTGCGT | 0.939
AGCTGGATTC | 1.01
CCTTACATGG | 1.01
TCCTAGGAAA | 1.09
TTCCTTTGGA | 0.931
AGCGCCTGTG | 0.965
GCAACTGATA | 0.99
TTCCCTGGGT | 1.05
GGCCGAGGAT | 0.992
CAGTTCATAG | 1.01

Sequence | switch fluorescence ratio
ACTAGCTTCT | 1.01
ATTATAGATT | 0.972
AGACTGGTGC | 1.1
CCTGGCATCT | 1.19
ATGCAATTGC | 1.03
CTCAATTGAA | 0.987
GGAGGGC | 0.912
GGACGCGG | 1
TCTAAGAAGG | 0.948
TCTGATAGTG | 0.984
TCTCTAATGT | 1.02
AATAATCTAG | 0.998
TTATATAGGA | 0.996
GAGGAGTGCC | 1.04
TGAGAGATGT | 1.01
ATAGACTAAT | 0.95
GCGGAGCGGA | 0.979
GCAATATAAG | 1.12
TAGGTTGCCG | 1.01
ACCTCTGTGG | 0.982
CGATGATTGG | 1.01
AGAAACATCG | 0.994
TAGTGGCTGT | 1

Sequence | switch fluorescence ratio
TGGAGACCAA | 1
TATGTGCGGT | 0.973
AAACCGAAAA | 2.52
CGCCCGGGGC | 3.02
AAGATTGTGA | 0.965
CGCATCACAG | 1.14
AGTAGAAACG | 0.979
ACATCTTTGC | 0.999
CTGACCGGGC | 1
TCCGGGCGTT | 1.29
CCAAGCGCTA | 1.38
GCACTACCGG | 1.06
CCGGAATGGG | 1.32
GTGAATCTGC | 1.01
AGTGTGTGAC | 0.962
AGATATATAT | 1.02
TCATTTGAG | 1.04
GGCACAGGTA | 1.03
ATGCATCTAG | 0.998
GGCATTTCG | 1.34
CGGGGAGCGC | 0.951
TAAAGTTGTG | 0.956
TACGAACGGG | 1.43

Sequence | switch fluorescence ratio
CTAGTGCAGG | 1
AGTTGGCATG | 0.994
GCGGAACGAA | 1.01
AGAGCTCGGG | 1.08
AGTCGTTTTG | 0.951
AGAATTAGC | 1
TTCATGTCCG | 0.952
GACGTGTTCA | 1.01
CCGCGGCCTT | 1.17
CATGATAGAG | 0.986
CTCAGACATA | 1.07
TAGACTAGCG | 0.961
TGGAATAGCC | 0.972
TATTGTATAC | 1.15
TATGCTGT | 1.01
TCGCTCGCAG | 2.04
GAAGGATATA | 0.959
TGGATTTATC | 0.997
ACTCTTTTTA | 1.02
CCCCAGCACG | 1.8
CTCTCAGTA | 0.973
ATTTCGGGAC | 1.03
GGCGGCAGTG | 1.01

Sequence | switch fluorescence ratio
CGGTCCAACT | 1.02
ATTTCAGGC | 1.01
ATGAGCCCTC | 1.03
GTCTAAGTTG | 1
TTGCGTGGGA | 0.99
ATACGAGAT | 1.04
GTTTGCCGAT | 0.995
AATACTCGGT | 1.05
TACAAACGGA | 1.29
GTTAAGTAAG | 1.18
TGCTTGTCGG | 0.985
TAGGTGGGTG | 0.973
GGGTTGACGT | 1.05
CGCAGAAGAT | 1
GATACTGGT | 1.01
GGATTCCT | 1.04
CCCAGGGGCG | 1.43
AATTTTTGGT | 1.01
CCGTGTTTTG | 0.971
ATTAGGTTA | 1.02
ATCGAGTTAA | 0.99
ACGATTTGA | 0.985
TTTTGGCTCG | 0.987

Sequence | switch fluorescence ratio
AGGCCCAGGC | 1.08
ATTTCTGGCT | 0.917
CTGTGTGGAA | 0.999
GTATTCGCCA | 1.03
CTCCATCGCC | 1.11
GGTGGTAAAT | 1
ACAAGGTTTT | 1.04
CACACGTGGA | 1.03
TAATCCTCTG | 1.12
ATATAGGCAG | 0.994
ATAAAATGTG | 0.996
GAAGCATGTG | 0.997
AGTAACATCT | 1.04
GGATATATGT | 1
CGGAAAAGGC | 1.01
ATTTACAGGA | 1.05
GATTGCACAT | 1.04
ACTCAAGTCA | 1.03
AAACACTTGA | 0.995
